Results: the supplement of paper PMC9135407
Several values for one entry are separate records, joined by “and”; a condition that tells them apart may be missing. Equal entries are not always repeated. Structures can show the parent of a compound that is named as a salt. About 620 (11%) of roughly 5,800 compounds showed activity.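 The calls were made as follows: active = score above a cut-off or among the top three wells of a plate; in these data no inactive exceeds 0.85.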 The entries are a selection whose mix differs from that of the whole data set.

System: primary human hepatic stellate cells (donor 1)
Experiment: scaled lipid accumulation score (0 = DMSO-like, 1 = nortriptyline-like); higher = stronger HSC inactivation (lipid re-accumulation), active = hit call of the paper
Conditions: 48 h
[1] = library stock concentration: 10 mM
[2] = library stock concentration: 1 mM
[3] = library stock concentration: 3.33 mM
[4] = library stock concentration: 6.4 mM
[5] = library stock concentration: 10.4 mM
[6] = library stock concentration: 80 uM
[7] = library stock concentration: 400 uM
[8] = library stock concentration: 2 mM

In the case of `O=C1C=CC(=C(c2ccc(O)cc2)c2ccc(O)cc2)C=C1` [Rosolic acid], the “scaled lipid accumulation score” value [1] is reported as inactive: 0.399.

With `C[C@@H](O)CCC[C@H](O)/C=C/C1=C(C/C=C\CCCC(=O)O)C(=O)CC1` [19(R)-hydroxy Prostaglandin B2] the “scaled lipid accumulation score” value [2] was inactive: ≤ 0.

`CN(C)CCCSc1ccccc1NC(=O)/C=C/c1ccccc1` [Cinanserin] was tested, and the “scaled lipid accumulation score” value (library stock concentration: 5.9 mM) was inactive: 0.272 and the “scaled lipid accumulation score” value [1] was inactive: ≤ 0.

For `CN(C)CCCSc1ccccc1NC(=O)/C=C/c1ccccc1` [Cinanserin hydrochloride], the “scaled lipid accumulation score” value [1] was inactive: 0.601.

With `Cl.Cl.OCCN1CCN(CC/C=C2/c3ccccc3Sc3ccc(C(F)(F)F)cc32)CC1` [cis-(Z)-Flupenthixol dihydrochloride] the “scaled lipid accumulation score” value [1] was active: 1.01.

For `CC(C)(C)c1ccc(S(=O)(=O)Nc2ccc(-n3ccnc3)cc2)cc1` [Stem-Cell Factor/c-Kit Inhibitor, ISCK03], the “scaled lipid accumulation score” value [3] was inactive: ≤ 0.

With `COc1cc2c(cc1OC)-c1cc3ccc(OC)c(OC)c3c[n+]1CC2` [Palmatine chloride] the “scaled lipid accumulation score” value was inactive: 0.034, the “scaled lipid accumulation score” value [3] was inactive: 0.003 and the “scaled lipid accumulation score” value [1] was inactive: ≤ 0.

In the case of `COC(=O)[C@H]1[C@H]2C[C@@H]3c4[nH]c5cc(OC)ccc5c4CCN3C[C@H]2C[C@@H](OC(=O)c2cc(OC)c(OC)c(OC)c2)[C@@H]1OC` [Reserpine], the “scaled lipid accumulation score” value is reported as inactive: ≤ 0 and the “scaled lipid accumulation score” value [1] is reported as inactive: 0.574 and inactive: 0.771.

In the case of `CCCCC[C@H](O)/C=C/[C@@H]1[C@@H](C/C=C\CCCCO)[C@@H](O)C[C@H]1O` [Prostaglandin F2.alpha. Alcohol], the “scaled lipid accumulation score” value [2] is reported as inactive: ≤ 0.

For `CNC(=C[N+](=O)[O-])NCCSCc1ccc(CN(C)C)o1` [Ranitidine HCl], the “scaled lipid accumulation score” value [4] was inactive: ≤ 0.

`CNC(=C[N+](=O)[O-])NCCSCc1ccc(CN(C)C)o1` [Ranitidine] was tested, and the “scaled lipid accumulation score” value [3] was inactive: ≤ 0, the “scaled lipid accumulation score” value [4] was inactive: ≤ 0 and the “scaled lipid accumulation score” value [1] was inactive: 0.049 and inactive: ≤ 0.

`CNC(=C[N+](=O)[O-])NCCSCc1ccc(CN(C)C)o1` [Ranitidine hydrochloride] was tested, and the “scaled lipid accumulation score” value was inactive: ≤ 0 and the “scaled lipid accumulation score” value [1] was inactive: ≤ 0 and inactive: ≤ -0.006.

`C=CCc1ccc(O)c(-c2ccc(O)c(CC=C)c2)c1` [Honokiol] was tested, and the “scaled lipid accumulation score” value [3] was inactive: ≤ 0 and the “scaled lipid accumulation score” value [1] was inactive: 0.295.

With `O=C(O)CN(CCOCCOCCN(CC(=O)O)CC(=O)O)CC(=O)O` the “scaled lipid accumulation score” value [1] was inactive: ≤ -0.055.

With `CC(C)C[C@H](NC(=O)[C@@H](O)[C@H](N)Cc1ccccc1)C(=O)O` [Bestatin] the “scaled lipid accumulation score” value [1] was inactive: ≤ -0.006 and the “scaled lipid accumulation score” value (library stock concentration: 16.2 mM) was inactive: 0.083.

With `CC(C)C[C@H](NC(=O)[C@@H](O)[C@H](N)Cc1ccccc1)C(=O)O` the “scaled lipid accumulation score” value [1] was inactive: 0.039.

`CC(C)C[C@H](NC(=O)[C@@H](O)[C@H](N)Cc1ccccc1)C(=O)O` [Bestatin hydrochloride] was tested, and the “scaled lipid accumulation score” value [1] was inactive: 0.238.

With `CC(C)C[C@H](NC(=O)[C@@H](O)[C@H](N)Cc1ccccc1)C(=O)O` [Bestatin (hydrochloride)] the “scaled lipid accumulation score” value [2] was inactive: 0.024.

`CCN(CC)CCCC(C)Nc1c2ccc(Cl)cc2nc2ccc(OC)cc12` (stereo not drawn) [Quinacrine 2HCl] was tested, and the “scaled lipid accumulation score” value [3] was inactive: 0.307 and the “scaled lipid accumulation score” value [1] was inactive: 0.325.

In the case of `CCN(CC)CCCC(C)Nc1c2ccc(Cl)cc2nc2ccc(OC)cc12` (stereo not drawn) [Quinacrine hydrochloride], the “scaled lipid accumulation score” value [1] is reported as inactive: 0.586.

`CCN(CC)CCCC(C)Nc1c2ccc(Cl)cc2nc2ccc(OC)cc12` (stereo not drawn) [Quinacrine dihydrochloride dihydrate] was tested, and the “scaled lipid accumulation score” value was inactive: 0.288.

In the case of `CCN(CC)CCCC(C)Nc1c2ccc(Cl)cc2nc2ccc(OC)cc12` (stereo not drawn) [Quinacrine dihydrochloride], the “scaled lipid accumulation score” value [1] is reported as inactive: 0.536.

In the case of `Cc1cc2c(cc1Cl)N(C(=O)Nc1ccnc3ccccc13)CC2`, the “scaled lipid accumulation score” value [1] is reported as active: 1.08.

For `Cc1nc(C)c(Cl)c(O)c1Cl` [Clopidol], the “scaled lipid accumulation score” value [1] was inactive: ≤ -0.027 and the “scaled lipid accumulation score” value [5] was inactive: ≤ 0 and inactive: 0.014.

In the case of `CCCCCCCCCCCCCCCC[N+](C)(C)CCN(Cc1ccc(OC)cc1)c1ncccn1` [Thonzonium bromide], the “scaled lipid accumulation score” value is reported as inactive: 0.318.

`O=C(O)P(=O)(O)O` [Foscarnet sodium] was tested, and the “scaled lipid accumulation score” value [1] was inactive: ≤ 0 and the “scaled lipid accumulation score” value [5] was inactive: ≤ 0.

`O=C(O)P(=O)(O)O` [Foscarnet Sodium] was tested, and the “scaled lipid accumulation score” value [3] was inactive: ≤ 0 and the “scaled lipid accumulation score” value [1] was inactive: ≤ 0.

In the case of `CC1=C(C)C(=O)C(CCCCC#CCCCC#CCO)=C(C)C1=O` [Docebenone], the “scaled lipid accumulation score” value (library stock concentration: 6.1 mM) is reported as inactive: ≤ -0.006.

In the case of `CC1=C(C)C(=O)C(CCCCC#CCCCC#CCO)=C(C)C1=O`, the “scaled lipid accumulation score” value [1] is reported as inactive: 0.105 and the “scaled lipid accumulation score” value (library stock concentration: 15.3 mM) is reported as inactive: ≤ -0.012.

For `Nc1ccc(C(=O)Nc2cccc(-c3nc(N4CCOCC4)c4oc5ncccc5c4n3)c2)cn1`, the “scaled lipid accumulation score” value [1] was active: 0.915.

For `C#C[C@]1(O)CC[C@H]2[C@@H]3CCc4cc(OC)ccc4[C@H]3CC[C@@]21C` [Mestranol], the “scaled lipid accumulation score” value [3] was inactive: 0.005, the “scaled lipid accumulation score” value [4] was inactive: 0.127 and the “scaled lipid accumulation score” value [1] was inactive: 0.511.

For `C#C[C@]1(O)CC[C@H]2[C@@H]3CCc4cc(OC)ccc4[C@H]3CC[C@@]21C`, the “scaled lipid accumulation score” value [1] was inactive: 0.814.

For `C#C[C@]1(O)CC[C@H]2[C@@H]3CCc4cc(OC)ccc4[C@H]3CC[C@@]21C` [Ethynylestradiol 3-methyl ether], the “scaled lipid accumulation score” value was inactive: ≤ 0.

`CC(C)NCC(O)c1ccc(NS(C)(=O)=O)cc1` (stereo not drawn) [(?)-Sotalol hydrochloride] [listing 1 of 2 here] was tested, and the “scaled lipid accumulation score” value [1] was inactive: ≤ 0.

With `CC(C)NCC(O)c1ccc(NS(C)(=O)=O)cc1` (stereo not drawn) [Sotalol hydrochloride] the “scaled lipid accumulation score” value was inactive: ≤ 0 and the “scaled lipid accumulation score” value [1] was inactive: ≤ 0.

For `CC(C)NCC(O)c1ccc(NS(C)(=O)=O)cc1` (stereo not drawn) [Sotalol HCl], the “scaled lipid accumulation score” value (library stock concentration: 7.3 mM) was inactive: ≤ -0.006.

For `CC(C)NCC(O)c1ccc(NS(C)(=O)=O)cc1` (stereo not drawn) [Sotalol], the “scaled lipid accumulation score” value [3] was inactive: ≤ 0 and the “scaled lipid accumulation score” value [1] was inactive: ≤ 0.

For `CC(C)NCC(O)c1ccc(NS(C)(=O)=O)cc1` (stereo not drawn) [(?)-Sotalol hydrochloride] [listing 2 of 2 here], the “scaled lipid accumulation score” value [1] was inactive: ≤ 0.

With `COc1ccc2cccc(CCNC(C)=O)c2c1` [Agomelatine] the “scaled lipid accumulation score” value [2] was inactive: ≤ 0, the “scaled lipid accumulation score” value [3] was inactive: ≤ 0 and the “scaled lipid accumulation score” value [1] was inactive: ≤ 0.

With `CN(C)CCCCSC(=N)N` the “scaled lipid accumulation score” value [1] was inactive: ≤ 0.

With `C1=N/C2=N/c3ccc(OCCN4CCCC4)c(c3)COC/C=C/COCc3cccc(c3)C(=C1)N2` [Pacritinib (SB1518)] the “scaled lipid accumulation score” value [3] was inactive: 0.536 and the “scaled lipid accumulation score” value [1] was inactive: 0.41.

`C1=N/C2=N/c3ccc(OCCN4CCCC4)c(c3)COC/C=C/COCc3cccc(c3)C(=C1)N2` [Pacritinib] was tested, and the “scaled lipid accumulation score” value [6] was inactive: 0.184, the “scaled lipid accumulation score” value [7] was inactive: 0.686 and the “scaled lipid accumulation score” value [8] was inactive: 0.473.

For `COc1cc(C=O)ccc1O` [Vanillin], the “scaled lipid accumulation score” value [3] was inactive: ≤ 0 and the “scaled lipid accumulation score” value [1] was inactive: ≤ 0.

In the case of `CC(=O)N1CCN(c2ccc(OCC3COC(Cn4ccnc4)(c4ccc(Cl)cc4Cl)O3)cc2)CC1` (stereo not drawn), the “scaled lipid accumulation score” value [1] is reported as inactive: 0.048.

In the case of `CC(=O)N1CCN(c2ccc(OCC3COC(Cn4ccnc4)(c4ccc(Cl)cc4Cl)O3)cc2)CC1` (stereo not drawn) [Ketoconazole], the “scaled lipid accumulation score” value is reported as inactive: 0.131 and the “scaled lipid accumulation score” value [3] is reported as inactive: 0.086.

In the case of `CN(CCOc1ccc(NS(C)(=O)=O)cc1)CCc1ccc(NS(C)(=O)=O)cc1` [Dofetilide], the “scaled lipid accumulation score” value [3] is reported as inactive: ≤ 0, the “scaled lipid accumulation score” value (library stock concentration: 4.5 mM) is reported as inactive: ≤ -0.006 and the “scaled lipid accumulation score” value [1] is reported as inactive: 0.026 and inactive: 0.09.

`CN(CCOc1ccc(NS(C)(=O)=O)cc1)CCc1ccc(NS(C)(=O)=O)cc1` was tested, and the “scaled lipid accumulation score” value [1] was inactive: ≤ 0.

`CNCC(O)c1ccc(O)c(O)c1` (racemic) [(+/-)-Epinephrine hydrochloride] was tested, and the “scaled lipid accumulation score” value [1] was inactive: ≤ 0.

With `Cc1cccc(CCN2CCC(C(=O)c3ccc(NS(C)(=O)=O)cc3)CC2)n1` the “scaled lipid accumulation score” value (library stock concentration: 9.9 mM) was inactive: 0.011.

With `Cc1cccc(CCN2CCC(C(=O)c3ccc(NS(C)(=O)=O)cc3)CC2)n1` [E-4031 dihydrochloride] the “scaled lipid accumulation score” value [1] was inactive: ≤ 0.

For `CCN(CC)CCn1c(=O)c(Cc2ccc(OC)cc2)nc2ccccc21` [Caroverine hydrochloride], the “scaled lipid accumulation score” value [1] was inactive: 0.098.

With `Nc1nc2ccc(Cl)cc2n2c(-c3ccccc3)nnc12` the “scaled lipid accumulation score” value [1] was inactive: 0.049.

`n(c1N)c(N(CC)C(C)C)c(nc1C(=O)\N=C(\N)/N)Cl` [5-(N-Ethyl-N-isopropyl)amiloride] was tested, and the “scaled lipid accumulation score” value [1] was active: 1.07.

`NS(=O)(=O)c1ccc(C(=O)O)cc1` was tested, and the “scaled lipid accumulation score” value [1] was inactive: ≤ 0.

For `COc1cc2ncnc(Nc3ccc(Cl)cc3F)c2cc1OC`, the “scaled lipid accumulation score” value [3] was inactive: ≤ 0 and the “scaled lipid accumulation score” value [1] was inactive: ≤ 0 and inactive: ≤ -0.001.

For `CCCCCCCCCCCCC/C=C/[C@@H](O)[C@H](CO)N(C)C` [N,N-Dimethylsphingosine], the “scaled lipid accumulation score” value [2] was inactive: 0.185.

`Oc1ccc(Nc2nc(-c3ccc(Cl)cc3)cs2)cc1` [Sphingosine Kinase Inhibitor 2] was tested, and the “scaled lipid accumulation score” value [2] was inactive: 0.058.

For `Oc1ccc(Nc2nc(-c3ccc(Cl)cc3)cs2)cc1`, the “scaled lipid accumulation score” value [6] was inactive: ≤ -0.001, the “scaled lipid accumulation score” value [7] was inactive: ≤ -0.001 and the “scaled lipid accumulation score” value [8] was inactive: ≤ -0.001. The “scaled lipid accumulation score” value [3] was inactive: ≤ -0.009 and the “scaled lipid accumulation score” value [1] was inactive: 0.141 and inactive: 0.011.

For `NC(=O)c1c(NC(=O)C2CC2)sc2c1CCCC2`, the “scaled lipid accumulation score” value [6] was inactive: ≤ -0.001, the “scaled lipid accumulation score” value [7] was inactive: ≤ -0.001 and the “scaled lipid accumulation score” value [8] was inactive: ≤ -0.001. For the same molecule, the “scaled lipid accumulation score” value [1] was inactive: 0.118.

For `CNc1cc(NS(=O)(=O)c2ccc(N)cc2)nc(NC)n1` [Ro 04-6790 dihydrochloride], the “scaled lipid accumulation score” value [1] was inactive: ≤ 0.

In the case of `CCCCC(C)CC(O)/C=C/C1C(O)CC(O)C1CCCCCCC(=O)O` (stereo not drawn) [17,20-dimethyl Prostaglandin F1.alpha.], the “scaled lipid accumulation score” value [2] is reported as inactive: ≤ 0.

`N#Cc1ccc2[nH]c(O)c(-c3ccc(CN4CCOCC4)cn3)c2c1` was tested, and the “scaled lipid accumulation score” value [3] was inactive: 0.477 and the “scaled lipid accumulation score” value [1] was inactive: 0.769.

With `O=C(Nc1ccc(Cl)cc1)c1ccccc1NCc1ccncc1` [VEGF Receptor Tyrosine Kinase Inhibitor II] the “scaled lipid accumulation score” value [3] was inactive: ≤ 0.

With `C#C[C@]1(OC(C)=O)CC[C@H]2[C@@H]3CCC4=C[C@@H](OC(C)=O)CC[C@@H]4[C@H]3CC[C@@]21C` [Ethynodiol diacetate] the “scaled lipid accumulation score” value was inactive: ≤ 0, the “scaled lipid accumulation score” value [3] was inactive: ≤ 0 and the “scaled lipid accumulation score” value (library stock concentration: 5.2 mM) was inactive: ≤ 0. The “scaled lipid accumulation score” value [1] was inactive: ≤ -0.001.
